# Reference: the supplement of paper PMC8728848
# Some of the results follow.
# Experiments:
# Test in all cases: glycan array binding signal (z-score within array); higher = stronger binding
# Conditions in all cases: glycan notation: IUPAC condensed, linker removed
# [1] = molecular target: Gal(b1-4)GlcNAc(b1-3)Gal(b1-4)GlcNAc(b1-2)Man(a1-3)[Gal(b1-4)GlcNAc(b1-3)Gal(b1-4)GlcNAc(b1-2)Man(a1-6)]Man(b1-4)GlcNAc(b1-4)[Fuc(a1-6)]GlcNAc
# In short: (§1)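 The binding signal is a Z-score computed within each array. Data were drawn from 3228 arrays in the Consortium for Functional Glycomics database, restricted to those with a known protein sequence. Scores were averaged over arrays of the same protein sequence at different concentrations or buffers, and over linkers, and negative values can be taken as non-binding.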
# [2] = molecular target: Gal(b1-4)GlcNAc(b1-3)Gal(b1-4)GlcNAc(b1-2)[Gal(b1-4)GlcNAc(b1-3)Gal(b1-4)GlcNAc(b1-6)]Man(a1-6)[Gal(b1-4)GlcNAc(b1-3)Gal(b1-4)GlcNAc(b1-2)Man(a1-3)]Man(b1-4)GlcNAc(b1-4)GlcNAc
# In short: as §1
# [3] = molecular target: Gal(b1-4)GlcNAc(b1-3)Gal(b1-4)GlcNAc(b1-2)[Gal(b1-4)GlcNAc(b1-3)Gal(b1-4)GlcNAc(b1-6)]Man(a1-6)[Gal(b1-4)GlcNAc(b1-3)Gal(b1-4)GlcNAc(b1-2)Man(a1-3)]Man(b1-4)GlcNAc(b1-4)[Fuc(a1-6)]GlcNAc
# In short: as §1
# [4] = molecular target: Gal(b1-4)GlcNAc(b1-3)Gal(b1-4)GlcNAc(b1-3)Gal(b1-4)GlcNAc
# In short: as §1
# [5] = molecular target: Gal(b1-4)GlcNAc(b1-3)Gal(b1-4)GlcNAc(b1-3)Gal(b1-4)GlcNAc(b1-2)Man(a1-3)[Gal(b1-4)GlcNAc(b1-3)Gal(b1-4)GlcNAc(b1-3)Gal(b1-4)GlcNAc(b1-2)Man(a1-6)]Man(b1-4)GlcNAc(b1-4)GlcNAc
# In short: as §1
# [6] = molecular target: Gal(b1-4)GlcNAc(b1-3)Gal(b1-4)GlcNAc(b1-3)Gal(b1-4)GlcNAc(b1-2)Man(a1-3)[Gal(b1-4)GlcNAc(b1-3)Gal(b1-4)GlcNAc(b1-3)Gal(b1-4)GlcNAc(b1-2)Man(a1-6)]Man(b1-4)GlcNAc(b1-4)[Fuc(a1-6)]GlcNAc
# In short: as §1
# [7] = molecular target: Gal(b1-4)GlcNAc(b1-3)Gal(b1-4)GlcNAc(b1-3)Gal(b1-4)GlcNAc(b1-2)[Gal(b1-4)GlcNAc(b1-3)Gal(b1-4)GlcNAc(b1-3)Gal(b1-4)GlcNAc(b1-6)]Man(a1-6)[Gal(b1-4)GlcNAc(b1-3)Gal(b1-4)GlcNAc(b1-3)Gal(b1-4)GlcNAc(b1-2)Man(a1-3)]Man(b1-4)GlcNAc(b1-4)[Fuc(a1-6)]GlcNAc
# In short: as §1
# [8] = molecular target: Gal(b1-4)GlcNAc(b1-3)Gal(b1-4)GlcNAc(b1-3)Gal(b1-4)GlcNAc(b1-3)Gal(b1-4)GlcNAc(b1-2)Man(a1-3)[Gal(b1-4)GlcNAc(b1-3)Gal(b1-4)GlcNAc(b1-3)Gal(b1-4)GlcNAc(b1-3)Gal(b1-4)GlcNAc(b1-2)Man(a1-6)]Man(b1-4)GlcNAc(b1-4)GlcNAc
# In short: as §1
# [9] = molecular target: Gal(b1-4)GlcNAc(b1-3)Gal(b1-4)GlcNAc(b1-3)Gal(b1-4)GlcNAc(b1-3)Gal(b1-4)GlcNAc(b1-2)Man(a1-3)[Gal(b1-4)GlcNAc(b1-3)Gal(b1-4)GlcNAc(b1-3)Gal(b1-4)GlcNAc(b1-3)Gal(b1-4)GlcNAc(b1-2)Man(a1-6)]Man(b1-4)GlcNAc(b1-4)[Fuc(a1-6)]GlcNAc
# In short: as §1
# [10] = molecular target: Gal(b1-4)GlcNAc(b1-3)Gal(b1-4)GlcNAc(b1-3)Gal(b1-4)GlcNAc(b1-3)Gal(b1-4)GlcNAc(b1-2)[Gal(b1-4)GlcNAc(b1-3)Gal(b1-4)GlcNAc(b1-3)Gal(b1-4)GlcNAc(b1-3)Gal(b1-4)GlcNAc(b1-6)]Man(a1-6)[Gal(b1-4)GlcNAc(b1-3)Gal(b1-4)GlcNAc(b1-3)Gal(b1-4)GlcNAc(b1-3)Gal(b1-4)GlcNAc(b1-2)Man(a1-3)]Man(b1-4)GlcNAc(b1-4)[Fuc(a1-6)]GlcNAc
# In short: as §1
# [11] = molecular target: Gal(b1-4)GlcNAc(b1-3)Gal(b1-4)GlcNAc(b1-3)Gal(b1-4)GlcNAc(b1-3)Gal(b1-4)GlcNAc(b1-3)Gal(b1-4)GlcNAc(b1-2)Man(a1-3)[Gal(b1-4)GlcNAc(b1-3)Gal(b1-4)GlcNAc(b1-3)Gal(b1-4)GlcNAc(b1-3)Gal(b1-4)GlcNAc(b1-3)Gal(b1-4)GlcNAc(b1-2)Man(a1-6)]Man(b1-4)GlcNAc(b1-4)GlcNAc
# In short: as §1
# [12] = molecular target: Gal(b1-4)GlcNAc(b1-3)Gal(b1-4)GlcNAc(b1-3)Gal(b1-4)GlcNAc(b1-3)Gal(b1-4)GlcNAc(b1-3)Gal(b1-4)GlcNAc(b1-2)Man(a1-3)[Gal(b1-4)GlcNAc(b1-3)Gal(b1-4)GlcNAc(b1-3)Gal(b1-4)GlcNAc(b1-3)Gal(b1-4)GlcNAc(b1-3)Gal(b1-4)GlcNAc(b1-2)Man(a1-6)]Man(b1-4)GlcNAc(b1-4)[Fuc(a1-6)]GlcNAc
# In short: as §1
# [13] = molecular target: Gal(b1-4)GlcNAc(b1-3)Gal(b1-4)GlcNAc(b1-3)Gal(b1-4)GlcNAc(b1-3)Gal(b1-4)GlcNAc(b1-3)Gal(b1-4)GlcNAc(b1-2)[Gal(b1-4)GlcNAc(b1-3)Gal(b1-4)GlcNAc(b1-3)Gal(b1-4)GlcNAc(b1-3)Gal(b1-4)GlcNAc(b1-3)Gal(b1-4)GlcNAc(b1-6)]Man(a1-6)[Gal(b1-4)GlcNAc(b1-3)Gal(b1-4)GlcNAc(b1-3)Gal(b1-4)GlcNAc(b1-3)Gal(b1-4)GlcNAc(b1-3)Gal(b1-4)GlcNAc(b1-2)Man(a1-3)]Man(b1-4)GlcNAc(b1-4)[Fuc(a1-6)]GlcNAc
# In short: as §1
# [14] = molecular target: Gal(b1-4)GlcNAc(b1-3)Gal(b1-4)GlcNAc(b1-3)Gal(b1-4)GlcNAc(b1-3)Gal(b1-4)GlcNAc(b1-3)Gal(b1-4)GlcNAc(b1-3)Gal(b1-4)GlcNAc(b1-2)Man(a1-3)[Gal(b1-4)GlcNAc(b1-3)Gal(b1-4)GlcNAc(b1-3)Gal(b1-4)GlcNAc(b1-3)Gal(b1-4)GlcNAc(b1-3)Gal(b1-4)GlcNAc(b1-3)Gal(b1-4)GlcNAc(b1-2)Man(a1-6)]Man(b1-4)GlcNAc(b1-4)GlcNAc
# In short: as §1
# [15] = molecular target: Gal(b1-4)GlcNAc(b1-3)Gal(b1-4)GlcNAc(b1-3)GalNAc
# In short: as §1
# [16] = molecular target: Gal(b1-4)GlcNAc(b1-3)Gal(b1-4)GlcNAc(b1-3)[Gal(b1-4)GlcNAc(b1-3)Gal(b1-4)GlcNAc(b1-6)]GalNAc
# In short: as §1
# [17] = molecular target: Gal(b1-4)GlcNAc(b1-3)Gal(b1-4)GlcNAc(b1-6)[Gal(b1-3)]GalNAc
# In short: as §1
# [18] = molecular target: Gal(b1-4)GlcNAc(b1-3)Gal(b1-4)[Fuc(a1-3)]GlcNAc(b1-3)Gal(b1-4)[Fuc(a1-3)]GlcNAc
# In short: as §1
# [19] = molecular target: Gal(b1-4)GlcNAc(b1-3)GalNAc
# In short: as §1
# [20] = molecular target: Gal(b1-4)GlcNAc(b1-3)[Fuc(a1-3)GlcNAc(b1-6)]Gal(b1-4)Glc
# In short: as §1
# [21] = molecular target: Gal(b1-4)GlcNAc(b1-3)[Gal(b1-4)GlcNAc(b1-6)]Gal(b1-4)GlcNAc
# In short: as §1
# [22] = molecular target: Gal(b1-4)GlcNAc(b1-3)[GlcNAc(b1-6)]Gal(b1-4)GlcNAc
# In short: as §1
# [23] = molecular target: Gal(b1-4)GlcNAc(b1-6)Gal(b1-4)GlcNAc
# In short: as §1
# [24] = molecular target: Gal(b1-4)GlcNAc(b1-6)GalNAc
# In short: as §1
# [25] = molecular target: Gal(b1-4)GlcNAc(b1-6)[Gal(b1-3)]GalNAc
# In short: as §1
# [26] = molecular target: Gal(b1-4)GlcNAc(b1-6)[Gal(b1-4)GlcNAc(b1-3)]GalNAc
# In short: as §1
# Gal(b1-4)GlcNAc6P = molecular target: Gal(b1-4)GlcNAc6P
# In short: as §1
# Gal(b1-6)Gal = molecular target: Gal(b1-6)Gal
# In short: as §1
# Gal3S(b1-3)GalNAc = molecular target: Gal3S(b1-3)GalNAc
# In short: as §1
# Gal3S(b1-3)GlcNAc = molecular target: Gal3S(b1-3)GlcNAc
# In short: as §1
# [27] = molecular target: Gal3S(b1-3)[Fuc(a1-4)]GlcNAc
# In short: as §1
# Gal3S(b1-4)Glc = molecular target: Gal3S(b1-4)Glc
# In short: as §1
# Gal3S(b1-4)Glc6S = molecular target: Gal3S(b1-4)Glc6S
# In short: as §1
# Gal3S(b1-4)GlcNAc = molecular target: Gal3S(b1-4)GlcNAc
# In short: as §1
# [28] = molecular target: Gal3S(b1-4)[Fuc(a1-3)]Glc6S
# In short: as §1
# [29] = molecular target: Gal3S(b1-4)[Fuc(a1-3)]GlcNAc
# In short: as §1
# [30] = molecular target: Gal3S(b1-4)[Fuc(a1-3)]GlcNAc6S
# In short: as §1
binder,measurement,setting,value
SP16664B-bot-474-25-474 (Bacteroides ovatus) (protein) CEEDIEIGNKIDESSYLASTQLSGLLLDENTNKNSSVIELRNNEYSTNVVFRLSKLPQKGVDVQIAVEESYAAIYNTIHETDFEVFPAANVKIANNGTFVLAPDDKVTPSVKVTLTAFDGMEEDKTYIVPLTVTSSTEGVTFTETSKHMVLLVQDYRNKPNTNKGEDAVQTVLYFEVNDTNPLNALEFLTESGKYFFDHIVLFAANINWDPEKQRVYLANNENVQFLLDNNDKYLQPLRKAGMKIIISILGNHDEAGVAQLSDMGAREFARELAAYCRAYNLDGVAFDDEYSNSPDLSNPWLASPSAYAGSRLMYECKAVMPEKIVSLYNLGNMYSSSLQVIDGIEPGQYCDYAVADYGGAAGPGTGMTLKQCAGMSIELRRGSGNSSESTARSRKEAGYGYYMFFALDPSLYGSQVYRCQSVCKGLYDETLVYPSYYYKKNSTEREAIN,glycan array binding signal (z-score),[1],0.966
same,glycan array binding signal (z-score),[2],1.08
same,glycan array binding signal (z-score),[3],0.772
same,glycan array binding signal (z-score),[4],-0.33
same,glycan array binding signal (z-score),[5],1.88
same,glycan array binding signal (z-score),[6],0.028
same,glycan array binding signal (z-score),[7],2.21
same,glycan array binding signal (z-score),[8],0.189
same,glycan array binding signal (z-score),[9],1.43
same,glycan array binding signal (z-score),[10],0.05
same,glycan array binding signal (z-score),[11],1.01
same,glycan array binding signal (z-score),[12],0.242
same,glycan array binding signal (z-score),[13],0.682
same,glycan array binding signal (z-score),[14],0.32
same,glycan array binding signal (z-score),[15],1.54
same,glycan array binding signal (z-score),[16],1.49
same,glycan array binding signal (z-score),[17],0.334
same,glycan array binding signal (z-score),[18],-0.415
same,glycan array binding signal (z-score),[19],-0.041
same,glycan array binding signal (z-score),[20],-0.168
same,glycan array binding signal (z-score),[21],0.225
same,glycan array binding signal (z-score),[22],0.038
same,glycan array binding signal (z-score),[23],0.107
same,glycan array binding signal (z-score),[24],0.318
same,glycan array binding signal (z-score),[25],-0.125
same,glycan array binding signal (z-score),[26],-0.108
same,glycan array binding signal (z-score),Gal(b1-4)GlcNAc6P,-0.423
same,glycan array binding signal (z-score),Gal(b1-6)Gal,-0.141
same,glycan array binding signal (z-score),Gal3S(b1-3)GalNAc,0.095
same,glycan array binding signal (z-score),Gal3S(b1-3)GlcNAc,0.167
same,glycan array binding signal (z-score),[27],-0.009
same,glycan array binding signal (z-score),Gal3S(b1-4)Glc,0.626
same,glycan array binding signal (z-score),Gal3S(b1-4)Glc6S,0.344
same,glycan array binding signal (z-score),Gal3S(b1-4)GlcNAc,-0.393
same,glycan array binding signal (z-score),[28],-0.231
same,glycan array binding signal (z-score),[29],0.068
same,glycan array binding signal (z-score),[30],0.545
